This note sets out measurements from PubChem BioAssay AID1346428 (National Center for Advancing Translational Sciences (NCATS), 2018).

Each structure is given as a SMILES string. About 1,200 (2.5%) of roughly 48,000 compounds were called active. Roughly 2% stayed inconclusive and do not appear here.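 Rule for the calls: active = activation of at least 60% and not above a set upper limit (about 1 call in 100 departs from these limits); inconclusive = activation of 40% to 60%, or above that upper limit; inactive = activation under 40%.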 The list shows a part of the results.

Chain of UniProt O75388 (O75388 whole entry, looked up): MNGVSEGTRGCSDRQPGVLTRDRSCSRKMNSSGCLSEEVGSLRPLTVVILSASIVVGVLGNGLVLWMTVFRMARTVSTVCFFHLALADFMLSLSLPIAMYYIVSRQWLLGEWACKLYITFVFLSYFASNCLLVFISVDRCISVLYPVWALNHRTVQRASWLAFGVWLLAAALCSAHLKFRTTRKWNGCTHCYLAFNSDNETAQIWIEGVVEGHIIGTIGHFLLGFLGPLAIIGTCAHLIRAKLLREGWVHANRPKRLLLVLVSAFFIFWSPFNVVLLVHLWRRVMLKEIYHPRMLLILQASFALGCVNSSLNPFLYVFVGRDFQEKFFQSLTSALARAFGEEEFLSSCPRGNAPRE

For the experiment, the target named is Probable G-protein coupled receptor 32 (Homo sapiens) (UniProt O75388). As to the kind of experiment: qHTS for Agonists of Human Resolvin D1 Receptor DRV1. Note: 0% is about no effect. The conditions noted are these: CHO-K1 GPR32 beta-arrestin PathHunter luminescence, 90 min; at 76.9 µM; stronger effect = higher value; zero percent set by DMSO-only wells. The method, boiled down:
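Luminescent readout of beta-Gal complementation quantifies ligand-induced beta-arrestin association with GPR32 in CHO-K1 cells; 90 min compound incubation at 37 °C, detection 1 h at room temperature.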
Take `CCN(CC)CCCNC(=O)C(C)n1nc(C)n2c(cc3occc32)c1=O` (centres undefined): the activation was inactive: 3.99%.

As to `CC(C)c1ccc(NC(=O)c2cc(S(=O)(=O)NC3CCCCC3)ccc2F)cc1`, the activation is inactive: -12.2%.

`COC(=O)c1ccccc1NC(=O)CN(c1ccc(Cl)cc1)S(=O)(=O)c1ccc(OC)cc1`: the activation is inactive: -6.9%.

Consider `COc1ccc(CCNC(=O)Cn2c(=O)nc(-c3ccccc3F)c3cc(Cl)ccc32)cc1OC`, for which the activation is inactive: 0.783%.

Turning to `O=C(C1CCC(CNS(=O)(=O)c2cccs2)CC1)N1CCN(c2ccc(Cl)cc2)CC1` (centres undefined), the activation is inactive: 6.22%.

Take `Cc1ccc2[nH]c(CSc3nnc(C)s3)cc(=O)c2c1`: the activation was inactive: 0.757%.

Regarding `CCOc1ccccc1NC(=O)C1CCN(S(=O)(=O)c2cccc3nonc23)CC1`, the activation is inactive: -24.2%.

On to `O=c1ccc2ccc(O)c(O)c2o1`, for which the activation was inactive: 12.4%.

Turning to `COc1ccc(N2CCN(c3ncnc4onc(C)c34)CC2)cc1`, the activation is inactive: 16.8%.

Consider `O=C(Nc1cc(-c2ccc(F)c(F)c2)no1)c1ccccc1F`, for which the activation is inactive: 0.891%.

As for `Cc1cccc(N2CCN(C(=O)C3CCCN(C(=O)c4cc5sccc5n4C)C3)CC2)c1C` (centres undefined), the activation was inactive: -21.2%.

As to `CCC1CN(C(=O)C2CCN(S(=O)(=O)c3c(C)noc3/C=C/c3ccc(C)cc3)CC2)c2cc(C)ccc2O1` (centres undefined), the activation is inactive: -23.7%.

For the compound `CCOc1ccc(CCNC(=O)Cn2ccc3cc(S(=O)(=O)N4CCCCCC4)ccc32)cc1`, the activation was inactive: -5.19%.

On to `CC1=C(C(=O)Nc2ccc(F)cc2)C(c2ccc(N(C)C)cc2)NC(=O)N1` (centres undefined), for which the activation is inactive: -7.17%.

Take `COCCNC(=O)CCn1c(=O)[nH]c2cc(OC)c(OC)cc2c1=O`: the activation is inactive: -2.21%.

Turning to `COc1ccc(NC(=O)C(=O)c2cc(C)n(-c3ccc(C)cc3)c2C)cc1Cl`, the activation is inactive: 14.1%.

In the case of `COc1ccc(C(=O)NCc2nnc(SCC(=O)Nc3ccc(C)cc3)n2-c2ccccc2)cc1`, the activation is inactive: -4.65%.

On to `CCc1ccc(CNC(=O)c2ccc(NC(=O)N3CCSc4ncccc43)cc2)cc1`, for which the activation is inactive: -6.15%.

`CCc1nc2nc(C)cc(Nc3cc(Cl)ccc3OC)n2n1`: the activation is inactive: -6.63%.

Turning to `Cc1ccc(SCC(=O)Nc2ccc3oc(-c4ccc(F)cc4)nc3c2)cc1`, the activation was inactive: 8.89%.

On to `CCOc1ccc(CNC(=O)CCc2c(C)nn(-c3ccc(N4CCOCC4)nn3)c2C)cc1`, for which the activation is inactive: 3.99%.

Take `Cc1ccc(S(=O)(=O)N2CCC(c3nnc(-c4cccc(C)c4)o3)CC2)cc1`: the activation is inactive: -14.2%.

As to `CCOc1ccc(CCNC(=O)c2ccc(C)c(-n3cnc4cccnc43)c2)cc1`, the activation is inactive: 2.06%.

In the case of `CC(C)NC(=O)Cn1c(=O)nc(-c2ccccc2)c2ccccc21`, the activation is inactive: -5.84%.
